These are yes or no findings as the source states them, for the method shown. In cells and extracts the contact can be indirect. Some entries that bind do so weakly or less than the wild type.
What was measured:
[1] = biological target: KSHV ORF61-HA (Kaposi's sarcoma-associated herpesvirus (KSHV, human herpesvirus 8)) (UniProt Q2HR67); assay: co-IP; HEK-293A cells co-transfected, lysed 24 h later in mild lysis buffer (1% Nonidet P-40, 150 mM NaCl); HA-tagged R1 proteins precipitated with anti-HA antibody and rProtein A Sepharose; washes up to 500 mM NaCl; immunoblot
[2] = biological target: MCMV M45-HA (murine cytomegalovirus (MCMV)) (UniProt Q06A28); assay: as above
[3] = biological target: KSHV mNeon-ORF61 (viral ribonucleotide reductase R1 protein ORF61 with mNeonGreen) (Kaposi's sarcoma-associated herpesvirus (KSHV, human herpesvirus 8)) (UniProt Q2HR67); assay: co-IP; mNeon pulldown with mNeonGreen-Trap agarose beads from RIPA lysates (with benzonase, insoluble material discarded) of TetOn A3B or A3G RPE-1 cells infected with KSHV (MOI 0.1) or MHV-68 (MOI 5); A3 induced 16 hpi with 1 µg/mL doxycycline, lysis at 40 hpi; 1 h at 4°C; immunoblot
[4] = biological target: KSHV mNeon-ORF61mutIPAM (Kaposi's sarcoma-associated herpesvirus (KSHV, human herpesvirus 8)) (UniProt Q2HR67); assay: as above

Protein sequences, listed by entry. Tags and fused reporters are not part of them. Lines headed by an entry give the natural chain unless they say otherwise; changes in a name come on top.
UniProt Q06A28: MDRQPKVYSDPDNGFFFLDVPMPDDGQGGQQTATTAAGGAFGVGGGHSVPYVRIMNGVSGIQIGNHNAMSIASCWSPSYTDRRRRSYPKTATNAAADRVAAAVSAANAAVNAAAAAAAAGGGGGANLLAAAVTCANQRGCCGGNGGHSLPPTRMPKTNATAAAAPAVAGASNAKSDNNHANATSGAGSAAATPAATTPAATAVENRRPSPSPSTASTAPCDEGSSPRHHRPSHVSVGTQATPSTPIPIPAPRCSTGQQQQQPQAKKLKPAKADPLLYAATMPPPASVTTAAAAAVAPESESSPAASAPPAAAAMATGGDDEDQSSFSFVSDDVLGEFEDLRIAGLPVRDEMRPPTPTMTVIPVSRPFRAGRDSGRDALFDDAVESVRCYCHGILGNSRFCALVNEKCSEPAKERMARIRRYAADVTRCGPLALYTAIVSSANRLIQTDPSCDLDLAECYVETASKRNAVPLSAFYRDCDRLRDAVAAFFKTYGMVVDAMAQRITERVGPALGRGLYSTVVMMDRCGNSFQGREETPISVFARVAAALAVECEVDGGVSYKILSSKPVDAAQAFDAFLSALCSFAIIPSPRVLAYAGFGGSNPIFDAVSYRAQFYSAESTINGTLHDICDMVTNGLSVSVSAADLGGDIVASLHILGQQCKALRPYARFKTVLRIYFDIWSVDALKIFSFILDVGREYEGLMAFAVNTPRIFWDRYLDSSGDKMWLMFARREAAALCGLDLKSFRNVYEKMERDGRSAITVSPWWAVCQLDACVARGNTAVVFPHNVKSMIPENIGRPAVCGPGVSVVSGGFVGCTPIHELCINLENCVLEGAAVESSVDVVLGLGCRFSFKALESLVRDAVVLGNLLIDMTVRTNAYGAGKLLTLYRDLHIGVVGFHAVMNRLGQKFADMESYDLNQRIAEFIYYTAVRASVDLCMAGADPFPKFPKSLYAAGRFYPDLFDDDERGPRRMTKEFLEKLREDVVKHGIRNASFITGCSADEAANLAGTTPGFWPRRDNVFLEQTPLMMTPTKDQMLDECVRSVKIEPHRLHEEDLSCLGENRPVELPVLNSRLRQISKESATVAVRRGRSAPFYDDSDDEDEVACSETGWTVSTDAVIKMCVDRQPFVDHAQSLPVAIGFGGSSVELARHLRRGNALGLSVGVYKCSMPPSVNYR
UniProt Q13546: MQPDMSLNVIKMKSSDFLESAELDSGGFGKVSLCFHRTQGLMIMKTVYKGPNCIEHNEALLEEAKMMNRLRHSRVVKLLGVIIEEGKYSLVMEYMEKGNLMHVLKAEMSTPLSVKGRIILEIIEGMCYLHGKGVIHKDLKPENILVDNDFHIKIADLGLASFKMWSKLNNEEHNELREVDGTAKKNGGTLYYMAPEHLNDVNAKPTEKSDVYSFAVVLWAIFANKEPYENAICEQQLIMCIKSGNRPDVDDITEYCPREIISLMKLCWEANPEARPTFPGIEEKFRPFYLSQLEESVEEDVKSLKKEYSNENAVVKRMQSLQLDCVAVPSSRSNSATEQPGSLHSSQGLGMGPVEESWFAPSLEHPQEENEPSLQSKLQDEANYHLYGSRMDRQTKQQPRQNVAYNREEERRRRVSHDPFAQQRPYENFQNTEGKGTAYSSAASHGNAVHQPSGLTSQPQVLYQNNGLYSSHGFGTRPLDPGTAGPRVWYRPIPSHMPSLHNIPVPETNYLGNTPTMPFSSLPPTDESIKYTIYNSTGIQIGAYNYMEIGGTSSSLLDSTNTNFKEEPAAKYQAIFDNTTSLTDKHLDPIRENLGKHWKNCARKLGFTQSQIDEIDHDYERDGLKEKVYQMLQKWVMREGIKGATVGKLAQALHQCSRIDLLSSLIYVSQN
UniProt Q9HC16: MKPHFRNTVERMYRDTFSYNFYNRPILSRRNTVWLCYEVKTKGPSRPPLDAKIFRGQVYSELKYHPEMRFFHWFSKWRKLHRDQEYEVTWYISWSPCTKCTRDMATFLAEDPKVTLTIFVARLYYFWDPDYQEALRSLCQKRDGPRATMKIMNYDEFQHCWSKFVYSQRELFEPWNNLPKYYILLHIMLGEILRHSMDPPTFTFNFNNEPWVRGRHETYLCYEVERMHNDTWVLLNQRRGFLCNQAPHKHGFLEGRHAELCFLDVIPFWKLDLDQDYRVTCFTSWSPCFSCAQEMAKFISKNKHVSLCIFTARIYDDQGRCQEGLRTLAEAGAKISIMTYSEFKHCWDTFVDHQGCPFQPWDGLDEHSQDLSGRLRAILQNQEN
UniProt Q9Y6K9: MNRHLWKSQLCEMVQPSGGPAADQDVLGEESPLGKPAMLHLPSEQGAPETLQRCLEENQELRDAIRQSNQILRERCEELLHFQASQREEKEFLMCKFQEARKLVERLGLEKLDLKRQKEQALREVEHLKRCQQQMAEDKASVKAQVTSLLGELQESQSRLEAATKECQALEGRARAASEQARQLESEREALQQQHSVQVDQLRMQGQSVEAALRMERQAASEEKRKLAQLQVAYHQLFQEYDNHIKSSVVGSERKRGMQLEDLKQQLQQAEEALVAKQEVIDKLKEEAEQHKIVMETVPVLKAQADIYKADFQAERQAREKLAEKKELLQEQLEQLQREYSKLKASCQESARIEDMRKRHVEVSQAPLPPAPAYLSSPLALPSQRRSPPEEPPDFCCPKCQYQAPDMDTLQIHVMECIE
UniProt Q9UH17: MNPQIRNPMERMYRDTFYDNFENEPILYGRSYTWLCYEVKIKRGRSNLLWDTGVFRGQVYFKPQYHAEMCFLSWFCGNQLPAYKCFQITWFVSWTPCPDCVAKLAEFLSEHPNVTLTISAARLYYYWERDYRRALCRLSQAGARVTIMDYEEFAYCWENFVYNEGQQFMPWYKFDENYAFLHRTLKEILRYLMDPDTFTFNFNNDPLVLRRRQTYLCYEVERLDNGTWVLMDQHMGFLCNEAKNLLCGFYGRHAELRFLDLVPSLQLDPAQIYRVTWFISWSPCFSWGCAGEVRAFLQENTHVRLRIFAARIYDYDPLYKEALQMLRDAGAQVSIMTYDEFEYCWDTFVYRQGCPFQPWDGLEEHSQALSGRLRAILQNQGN

Substance	binding [1]	binding [2]	binding [3]	binding [4]
FLAG-tagged human RIPK1 (pcDNA3.1-hRIPK1-Flag) (from UniProt Q13546 1-671)	no binding	binds	–	–
A3G-mScarlet-2xHA (human APOBEC3G fused with mScarlet and an HA tag) (from UniProt Q9HC16 1-384)	–	–	no binding	–
FLAG-tagged NEMO (pCMVTAG-NEMO) (from UniProt Q9Y6K9 1-419)	no binding	binds	–	–
A3B-mScarlet-3xHA (human APOBEC3B fused with mScarlet and an HA tag) (from UniProt Q9UH17 1-382)	–	–	binds	no binding
